Details: Homo sapiens, pH 7.4, CD, Sodium phosphate 10 mM, reversible: yes

For “Apolipoprotein A-I wild type (chain not printed)”, the denaturant m value (25 °C, GdnHCl) was 2.1 kcal/mol/M, the “denaturant midpoint (higher = more stable)” value (25 °C, GdnHCl) was 1.1 M and the unfolding free energy (25 °C, GdnHCl) was 2.3 kcal/mol. For the same substance, the Tm (Thermal) was 58 °C.

Source: FireProtDB (doi:10.1021/bi0014406)
